Source: US20250205270A1, “ANTIBODY-DRUG CONJUGATE PRECURSORS COMPRISING A CYCLIC DINUCLEOTIDE” (TAKEDA PHARMACEUTICAL COMPANY LIMITED, priority 2016, published 2025)
Counter-ions that a name gives are not always drawn. Like-named read-outs stand apart in the source and are kept apart here.

Assays:
[1] = target: mutated-type STING (R232H) (Homo sapiens (Human), UniProt Q86WV6)
wild-type STING [2] = target: T1, wild-type STING (Homo sapiens (Human), UniProt Q86WV6, H232R); experiment: STING-binding test (TR-FRET, displacement of fluorescein-labeled 2′,3′-cGAMP); conditions: 30 μM test compound
wild-type STING [3] = target: T1, wild-type STING; conditions: 2′,3′-cGAMP (30 μM) = 100%, solvent = 0%

For `Nc1ncnc2c1ncn2[C@@H]1O[C@@H]2COP(=O)(O)O[C@@H]3[C@H](O)[C@@H](COP(=O)(O)O[C@H]2[C@H]1F)O[C@H]3n1cc(F)c2c(=O)[nH]cnc21` [Example 1a, 7-((5R,7R,8R,12aR,14R,15R,15aR,16R)-14-(6-amino-9H-purin-9-yl)-15-fluoro-2,10,16-trihydroxy-2,10-dioxidooctahydro-12H-5,8-methanofuro[3,2-1][1,3,6,9,11,2,10]pentaoxadiphosphacyclotetradecin-7-yl)-5-fluoro-3,7-dihydro-4H-pyrrolo[2,3-d]pyrimidin-4-one Disodium Salt], the “activity level against mutated-type STING (R232H) of test compound (30 μM)” value [1] was 92%.

`Nc1ncnc2c1ncn2[C@@H]1O[C@@H]2COP(=O)(O)O[C@@H]3[C@H](O)[C@@H](COP(=O)(S)O[C@H]2[C@H]1F)O[C@H]3n1cc(F)c2c(=O)[nH]cnc21` (stereo partly drawn) [Example 3a, 7-((2R,5R,7R,8R,12aR,14R,15R,15aR,16R)-14-(6-amino-9H-purin-9-yl)-15-fluoro-10,16-dihydroxy-2,10-dioxido-2-sulfanyloctahydro-12H-5,8-methanofuro[3,2-1][1,3,6,9,11,2,10]pentaoxadiphosphacyclotetradecin-7-yl)-5-fluoro-3,7-dihydro-4H-pyrrolo[2,3-d]pyrimidin-4-one Disodium Salt] was tested, and the “binding inhibition rate of test compound (30 μM)” value (wild-type STING [2]; Disodium Salt) was 93% and the “activity level of test compound (30 μM), STING agonistic activity test” value (wild-type STING [3]; Disodium Salt) was 107%.

`Nc1ncnc2c1ncn2[C@@H]1O[C@@H]2COP(=O)(O)O[C@@H]3[C@H](O)[C@@H](COP(=O)(S)O[C@H]2[C@H]1F)O[C@H]3n1cc(F)c2c(=O)[nH]cnc21` (stereo partly drawn) [Example 3, 7-((2R,5R,7R,8R,12aR,14R,15R,15aR,16R)-14-(6-amino-9H-purin-9-yl)-15-fluoro-10,16-dihydroxy-2,10-dioxido-2-sulfanyloctahydro-12H-5,8-methanofuro[3,2-1][1,3,6,9,11,2,10]pentaoxadiphosphacyclotetradecin-7-yl)-5-fluoro-3,7-dihydro-4H-pyrrolo[2,3-d]pyrimidin-4-one 1.7 Triethylamine Salt] was tested, and the “binding inhibition rate of test compound (30 μM)” value (wild-type STING [2]) was 64% and the “activity level of test compound (30 μM), STING agonistic activity test” value (wild-type STING [3]) was 76%.
